Counter-ions that a name gives are not always drawn. ± gives the standard deviation of the averaged measurements. The list shows a part of the results. Many values rest on one well or one pass, so single values are uncertain.
system: OVCAR4; assay: log2 surviving fraction relative to plate median (drug vs vehicle, or drug+dl922-947 vs dl922-947 alone); ovarian cancer lines: OVCAR4 is platinum-sensitive while Ov4Cis resists cisplatin and Ov4Carbo carboplatin; higher = more cell survival; settings: dl922-947 oncolytic adenovirus co-treatment: none; compound concentration: 10 uM; 192 h

Row | Compound | log2 surviving fraction
1 | N=C(N)c1ccc(N=NNc2ccc(C(=N)N)cc2)cc1 [Diminazene Aceturate] | -0.907 ± 1.2
2 | Nc1cccc2c1CN(C1CCC(=O)NC1=O)C2=O (stereo not given) [Lenalidomide] | 2.95 ± 2.8
3 | CCC(=O)O[C@@H](O[P@](=O)(CCCCc1ccccc1)CC(=O)N1C[C@H](C2CCCCC2)C[C@H]1C(=O)O)C(C)C [Fosinopril sodium (Monopril)] | -0.174 ± 0.5
4 | CC1(C)S[C@@H]2[C@H](NC(=O)[C@H](N)c3ccccc3)C(=O)N2[C@H]1C(=O)O [Ampicillin Trihydrate] | 0.682 ± 1.6
5 | CC[C@H]1OC(=O)C[C@@H](O)[C@H](C)[C@@H](O[C@@H]2O[C@H](C)[C@@H](O)[C@H](N(C)C)[C@H]2O)[C@@H](CCN2C[C@H](C)C[C@H](C)C2)C[C@@H](C)C(=O)/C=C/C(C)=C/[C@@H]1CO[C@@H]1O[C@H](C)[C@@H](O)[C@@H](OC)[C@H]1OC [Tilmicosin] | 0.346 ± 0.64
6 | CN/C(=N\CCSCc1nc[nH]c1C)NC#N [Cimetidine (Tagamet)] | 0.158 ± 0.24
7 | CC(C)C(=O)Nc1ccc([N+](=O)[O-])c(C(F)(F)F)c1 [Flutamide (Eulexin)] | -0.543 ± 0.043
8 | CCCOc1ccc(C(=O)OCCN(CC)CC)cc1N [Proparacaine HCl] | 0.479 ± 0.27
9 | C=CCc1cc(OC)c(O)c(C(=O)NCCO)c1 [Alibendol] | 0.86 ± 0.89
10 | Cn1c(CNc2ccc(C(=N)N)cc2)nc2cc(C(=O)N(CCC(=O)O)c3ccccn3)ccc21 [BIBR 953 (Dabigatran etexilate, Pradaxa)] | -0.787 ± 0.66
11 | CC(C)OC(=O)C(C(=O)OC(C)C)=C1SC=CS1 [Malotilate] | 3.13 ± 3.9
12 | CN(C)CCOc1ccc(/C(=C(/CCCl)c2ccccc2)c2ccccc2)cc1 [Toremifene Citrate (Fareston, Acapodene)] | -1.97 ± 0.72
13 | C[C@@H]1CCC[C@H](C)N1NC(=O)c1ccc(Cl)c(S(N)(=O)=O)c1 [Clopamide] | -0.0465 ± 0.26
14 | CC(=O)OC[C@H]1O[C@@H]([S-])[C@H](OC(C)=O)[C@@H](OC(C)=O)[C@@H]1OC(C)=O.CCP(CC)CC.[Au+] [Auranofin] | -7.95 ± 12
15 | CN(C(=O)CN(CCO)CC(=O)N(C)C(C)(C)Cc1ccccc1)C(C)(C)Cc1ccccc1 [Oxethazaine] | -3.08 ± 4.3
16 | CCC[C@@H]1C[C@@H](C(=O)N[C@@H]([C@H]2O[C@H](SC)[C@H](O)[C@@H](O)[C@H]2O)[C@@H](C)O)N(C)C1 [Lincomycin hydrochloride (Lincocin)] | 0.188 ± 0.038
17 | CC12CC3CC(C)(C1)CC(N)(C3)C2 [Memantine HCl (Namenda)] | -1.26 ± 0.21
18 | Cc1cccc(C(C)c2c[nH]cn2)c1C (stereo not given) [Medetomidine HCl] | 0.665 ± 0.038
19 | O=C(O)CCNC(=O)c1ccccc1 [Betamipron] | 0.166 ± 0.47
20 | C[C@H](CS)C(=O)N1CCC[C@H]1C(=O)O [Captopril (Capoten)] | 0.469 ± 0.75
21 | C[C@@H](O)[C@H]1C(=O)N2C(C(=O)O)=C(S[C@@H]3CN[C@H](C(=O)N(C)C)C3)[C@H](C)[C@H]12 [Meropenem] | -0.407 ± 1
22 | CN(C/C=C/C#CC(C)(C)C)Cc1cccc2ccccc12 [Terbinafine hydrochloride (Lamisil)] | 0.426 ± 0.88
23 | Nc1ncnc2c1ncn2[C@@H]1O[C@H](COP(=O)(O)OP(=O)(O)OP(=O)(O)O)[C@@H](O)[C@H]1O [ATP (Adenosine-Triphosphate)] | 0.361 ± 0.9
24 | NC(=O)c1cnccn1 [Pyrazinamide (Pyrazinoic acid amide)] | 0.51 ± 0.49
25 | Cc1ccccc1C(=O)Nc1ccc(C(=O)N2CCCC(O)c3cc(Cl)ccc32)c(C)c1 (stereo not given) | -0.823 ± 0.19
26 | CCC[C@H](NC(=O)[C@@H]1[C@H]2CCC[C@H]2CN1C(=O)[C@@H](NC(=O)[C@@H](NC(=O)c1cnccn1)C1CCCCC1)C(C)(C)C)C(=O)C(=O)NC1CC1 [Telaprevir (VX-950)] | -1.94 ± 0.091
27 | O=C1C(O)=C([C@H]2CC[C@H](c3ccc(Cl)cc3)CC2)C(=O)c2ccccc21 [Atovaquone (Atavaquone)] | -0.179 ± 0.52
28 | CC(C)(C#N)c1cc(Cn2cncn2)cc(C(C)(C)C#N)c1 [Anastrozole] | 3.08 ± 2.6
29 | CS(=O)(=O)CCNCc1ccc(-c2ccc3ncnc(Nc4ccc(OCc5cccc(F)c5)c(Cl)c4)c3c2)o1 [Lapatinib] | -5.76 ± 1.9
30 | CC[C@H](C)[C@H](N)C1=N[C@H](C(=O)N[C@@H](CC(C)C)C(=O)N[C@H](CCC(=O)[O-])C(=O)N[C@H](C(=O)N[C@H]2CCCCNC(=O)[C@H](CC(N)=O)NC(=O)[C@@H](CC(=O)[O-])NC(=O)[C@H](Cc3cnc[nH]3)NC(=O)[C@@H](Cc3ccccc3)NC(=O)[C@H]([C@@H](C)CC)NC(=O)[C@@H](CCCN)NC2=O)[C@@H](C)CC)CS1.[Zn+2] [Bacitracin zinc] | 0.38 ± 0.091
